Experimental findings from paper PMC6919601, “Identification of Plasmodium dipeptidyl aminopeptidase allosteric inhibitors by high throughput screening” (PLoS ONE, 2019) are described below.

The whole screen tested about 110,000 compounds, of which about 230 (0.21%) showed an effect of 50% or more. The list shows a part of the results.
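Further: 30 min substrate incubation versus DMSO and 10 µM JCP410 controls.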

For this experiment, the target named is DPAP1 (Plasmodium falciparum, UniProt Q8IIJ9). Kind of experiment: primary screen, percent inhibition; read by cleavage of a fluorogenic dipeptide substrate; higher = more effect of the substance. Set-up: species or system P. falciparum D10 trophozoite lysates; single well.
Chain of DPAP1 (Q8IIJ9 whole entry, looked up): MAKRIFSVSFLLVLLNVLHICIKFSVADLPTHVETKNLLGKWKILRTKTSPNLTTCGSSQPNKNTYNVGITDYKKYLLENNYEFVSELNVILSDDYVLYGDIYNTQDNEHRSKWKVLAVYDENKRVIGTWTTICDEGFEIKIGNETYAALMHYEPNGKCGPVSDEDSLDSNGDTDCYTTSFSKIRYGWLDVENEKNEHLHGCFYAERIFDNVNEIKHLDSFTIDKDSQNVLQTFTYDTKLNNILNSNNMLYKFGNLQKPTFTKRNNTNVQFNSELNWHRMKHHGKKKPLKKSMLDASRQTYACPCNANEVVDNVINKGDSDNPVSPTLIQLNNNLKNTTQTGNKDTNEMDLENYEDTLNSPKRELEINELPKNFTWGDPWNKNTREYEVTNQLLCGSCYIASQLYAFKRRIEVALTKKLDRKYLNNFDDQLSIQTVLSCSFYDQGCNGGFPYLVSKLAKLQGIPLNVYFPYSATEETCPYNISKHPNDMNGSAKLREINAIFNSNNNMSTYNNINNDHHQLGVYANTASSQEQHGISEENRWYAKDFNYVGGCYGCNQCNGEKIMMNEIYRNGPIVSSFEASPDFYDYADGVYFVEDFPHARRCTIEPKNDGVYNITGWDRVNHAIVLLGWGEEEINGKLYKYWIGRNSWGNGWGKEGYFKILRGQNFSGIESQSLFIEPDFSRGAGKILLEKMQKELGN
Turning to `OC[C@@H]1C=C(c2ccccc2)C[C@H](CO)C1`, the “% Inhibition @ 10 uM” value is -5.36%. The figure for `CNc1ccc(OC(F)F)cc1C(=O)c1ccccc1` is -0.436%; for `CC(=O)Nc1ccc(C(C)(C)c2ccc(NC(C)=O)cc2)cc1` it is -0.0369%; for `CCc1ccc(OCC(=O)N(Cc2nc(-c3ccc(OC)cc3)no2)C(C)C)c(Br)c1` it is -1.84%.

For the molecule `COc1ccccc1N1CCN(C2CC(=O)N(c3ccc(C(C)C)cc3)C2=O)CC1` (centres unmarked), the “% Inhibition @ 10 uM” value is 0.583%. For the molecule `Cc1ccc(CCN2C(=O)CCC2(C)C(=O)NC2CCC(C)CC2)cc1` (centres unmarked), the “% Inhibition @ 10 uM” value was determined as 5.23%. The figure for `CC1CN(CC2=CC[C@H]3C[C@@H]2C3(C)C)CC(C)O1` (some centres unmarked) is 0.217%. The figure for `COc1ccc(S(=O)(=O)N2CCN(CCO)CC2)cc1-c1nnc2c3ccccc3c(C)nn12` is 0.628%; for `CCOC(=O)N1CCC(N2Cc3cccc(C(=O)NCc4ccc(C)cc4)c3C2=O)CC1` it is 2.9%; for `CCOCCCNC(=O)c1ccc(CS(=O)(=O)c2cccc(C(F)(F)F)c2)o1` it is 2.14%.

Turning to `Nc1c(-c2nc(-c3cccnc3)no2)nnn1-c1ccccc1`, the “% Inhibition @ 10 uM” value worked out at 2.96%. As for `COC(=O)CSC1=C(C#N)C(c2ccccc2)C(C(=O)Nc2ccccc2)=C(C)N1` (centres unmarked), the “% Inhibition @ 10 uM” value is 37.3%. The figure for `OCCCN1CCN(C2Cc3cc(F)ccc3Sc3ccc(Cl)cc32)CC1` (centres unmarked) is 0.488%; for `CCCCOC(=O)CNc1nnc(O)nc1O` it is -2.62%. The same measure for `COc1cc(-c2nnc3sc(-c4ccccc4Br)nn23)cc(OC)c1OC`: 7.5%; for `O=C(CN1CCCCC1)c1ccccc1`: 2.56%.

As for `COc1ccc(C(=O)c2ccccc2)cc1CN1CCOCC1`, the “% Inhibition @ 10 uM” value was -4.96%.

As to `COCCN1C(=O)c2ccccc2C(C(=O)N(C)Cc2ccccc2)C1c1cn(C)c2ccccc12` (centres unmarked), the “% Inhibition @ 10 uM” value is listed as 7.15%. The figure for `CC(C)(C)Nc1nc2c(S(=O)(=O)c3ccccc3)nnn2c2ccccc12` is 15.5%. The same measure for `COc1ccc(-c2c(C(C)=O)c(C)nc3sc4c(c23)NC(c2ccccc2)NC4=O)cc1` (centres unmarked): -6.57%; for `Cc1cc(=O)n2nc(-c3ccccc3)sc2n1`: 1.24%; for `CCCCNC(=O)c1cn(-c2ccccc2)nc1-c1ccccc1`: 2.38%.

In the case of `C=C(C)Cn1c(SCCC(C)C)nc2c1c(=O)[nH]c(=O)n2C`, the “% Inhibition @ 10 uM” value was -5.14%. The same measure for `CCn1cc(/C=C(/C#N)C(N)=O)c2ccccc21`: -4.32%; for `CC(C)CCOc1ccc(C(=O)CCN(C)C)cc1`: 3.17%; for `CC1CCCN(C(=O)c2cc3c(-c4ccccc4F)nn(C)c3s2)C1` (centres unmarked): 1.79%. The figure for `O=C(Nc1ccc(Cl)cc1C(=O)NCCO)c1ccco1` is -1.68%; for `COc1cc(OC)c(OC)cc1/C=C1N=C(/C=C/c2ccccc2)OC\1=O` it is -34.9%. The figure for `O=C(CCN1C(=O)c2ccccc2C1=O)N1CCCCCC1` is 1.44%; for `CCCCCCCCc1ccc(-c2ccc(C(=N)NO)cc2)cc1` it is -2%; for `c1cc2c(cc1CNC13CC4CC(CC(C4)C1)C3)OCO2` it is -3.32%. For `COc1cc(CNCc2c(C(=O)O)n(Cc3ccccc3C)c3ccccc23)cc(OC)c1OC`, the “% Inhibition @ 10 uM” value was -1.34%.

Consider `Clc1cccc(N2CCN(Cc3c[nH]c4ccccc34)CC2)c1`, for which the “% Inhibition @ 10 uM” value is reported as -5.57%.

Take `CC1=CC(C)(C)NC(=S)N1c1ccc(C(=O)/C=C/c2ccccc2)cc1`: the “% Inhibition @ 10 uM” value is listed as -0.687%. The figure for `O=C(O)CN(Cc1ccc(Br)cc1)S(=O)(=O)c1ccccc1` is 1.08%; for `O=S(=O)(c1ccc(-c2cc(C(F)(F)F)no2)s1)N1CCC2(CC1)OCCO2` it is -0.895%. The figure for `O=C(CN1CCCCCC1)N1c2ccccc2Sc2ccc(Cl)cc21` is -7.54%.

Turning to `CC(NC(=O)Cn1ncc2ccccc21)c1ccccc1` (centres unmarked), the “% Inhibition @ 10 uM” value is 3.29%. Take `Cc1cccc(Nc2nc3c(c(=O)[nH]c(=O)n3C)n2CCC#N)c1`: the “% Inhibition @ 10 uM” value is -3.58%. The same measure for `CC(C)(C)C1CCC(NCCN2CCOCC2)CC1` (centres unmarked): -5.44%; for `COc1ccccc1C(=O)N1CC2(C)CC1CC(C)(C)C2` (centres unmarked): -5.15%. The figure for `COc1ccc2nc(Cl)c(C3CC(c4ccc(Cl)cc4)=NN3C(C)=O)cc2c1` (centres unmarked) is 4.18%; for `CCC(CCC(C)C1CCC2C3CC(O)C4(O)CC(O)CCC4(C)C3CCC12C)C(C)C` (centres unmarked) it is -1.32%; for `COc1cc2c3c(c1)C(C)CC(C)(C)N3C(=O)C2=O` (centres unmarked) it is 4.7%. On to `O=C(COc1ccccc1)NC(Cc1c[nH]c2ccccc12)C(=O)O` (centres unmarked), for which the “% Inhibition @ 10 uM” value was 10.2%. Take `O=C(COc1cccc(Cl)c1)NC1CCCCC1`: the “% Inhibition @ 10 uM” value was 0.997%. Take `COc1cc(CNCc2ccc(OC)c(C)c2)cc(OC)c1`: the “% Inhibition @ 10 uM” value is given as -4.7%.

In the case of `Cc1cc(C)c(C(=O)CC(N2CCOCC2)C(F)(F)F)c(O)n1` (centres unmarked), the “% Inhibition @ 10 uM” value is recorded as 3.81%. The figure for `O=C(NCC1CCCO1)c1ccc(CSCc2ccc(Cl)cc2)o1` (centres unmarked) is -3.12%; for `COc1ccc(OC)c(NC(=O)c2sc3nc4c(cc3c2N)CCCC4)c1` it is -2.32%. The same measure for `Cc1ccc2onc(CC(=O)NCCCOC(C)C)c2c1`: -6.01%; for `COc1ccc(CN2C(=O)c3cccnc3C2=O)cc1S(=O)(=O)N(C)C1CCCCC1`: 6.34%; for `Cc1nc(=O)c(-c2ccccc2)c(C)n1CCOC12CC3CC(CC(C3)C1)C2`: 1.63%. The same measure for `CCc1ccc(S(=O)(=O)c2nnn(-c3cccc(OC)c3)c2N)cc1`: -3.85%; for `CCOC(=O)c1c(SC)n[nH]c1N`: 1.02%. Regarding `CCOc1ccc(Cc2c(O)ncnc2O)cc1`, the “% Inhibition @ 10 uM” value was -4.4%. The same measure for `Clc1ccccc1-c1nnc(SCc2ccccc2)o1`: 5.09%; for `CC(=O)c1ccc2c(c1)[nH]c1cc(C(C)=O)ccc12`: -4.97%.

Consider `O=C(COCc1cc(-c2ccc3c(c2)OCO3)on1)NCc1cccnc1`, for which the “% Inhibition @ 10 uM” value was determined as 3.12%. The figure for `O=C(C1=C(O)C(=O)N(c2ccc(F)cc2)C1c1ccc(F)cc1)c1ccccc1` (centres unmarked) is 1.83%; for `CCOP(=O)(OCC)C(Nc1ccc(Cl)c(Cl)c1)c1ccc(Br)cc1` (centres unmarked) it is 0.00178%; for `C(=C\c1ccccc1)/CN1CCN(c2ccccc2)CC1` it is -4.04%. The figure for `N=C1/C(=C\c2coc3ccccc3c2=O)C(=O)N=C2SC(SCCOc3ccccc3)=NN12` is -7.65%; for `Cc1ccccc1C(=O)Nc1ccccc1C(F)(F)F` it is 6.8%; for `COc1ccc(S(=O)(=O)Nc2ccc(C(=O)O)cc2)cc1` it is -1.82%. The same measure for `O=C(CCNS(=O)(=O)c1cccc2nsnc12)NC1CCN(Cc2ccccc2)CC1`: -1.2%. As for `CCOc1ccccc1NC(=O)CN(c1ccc(C)cc1)S(=O)(=O)c1ccccc1`, the “% Inhibition @ 10 uM” value is given as 5.28%.

Regarding `CCC(C(=O)NCc1cccc(Cl)c1)n1nc(C)c2sc3ccccc3c2c1=O` (centres unmarked), the “% Inhibition @ 10 uM” value is listed as -4.43%.

In the case of `O=C(Nc1cccc2nsnc12)c1cc(Br)ccc1NS(=O)(=O)c1ccc(Cl)cc1`, the “% Inhibition @ 10 uM” value is 3.01%. The figure for `CCOC(=O)C1=CN(C)C=C(C(=O)OCC)C1c1cc(OC)ccc1OC` is -5.05%; for `CC(=O)c1ccc(NS(=O)(=O)c2c(C)cc(C)cc2C)cc1` it is 5.29%. The same measure for `COc1ccc(S(=O)(=O)N(CC(=O)Nc2ccc(CC#N)cc2)c2cccc(Cl)c2)cc1`: 5.08%.

Turning to `CCO/C(O)=C1\C(C)=NC2(O)c3ccccc3C(=O)C12O` (centres unmarked), the “% Inhibition @ 10 uM” value stood at 0.989%. For `O=C(Nc1nc(-c2ccc(S(=O)(=O)N3CCCC3)cc2)cs1)c1ccccc1Cl`, the “% Inhibition @ 10 uM” value is on record as -4.66%. As to `CC1CCN(S(=O)(=O)c2ccc(NC(=O)c3cccc(Br)c3)cc2)CC1`, the “% Inhibition @ 10 uM” value came to 5.85%. For the molecule `O=C1N=C(N2CCOCC2)S/C1=C/c1ccccc1O`, the “% Inhibition @ 10 uM” value stood at 0.343%. In the case of `C=CCNC(=O)/C(=C/c1ccccc1)NC(=O)c1ccc(OC)cc1`, the “% Inhibition @ 10 uM” value worked out at 2.36%.

As for `Cc1ccccc1S(=O)(=O)Cc1ccc(C(=O)N(C)C2CCCCC2)o1`, the “% Inhibition @ 10 uM” value worked out at 0.718%. The same measure for `COc1ccc(N(CC(=O)N2CCc3ccccc3C2)S(=O)(=O)c2ccc(C)cc2)cc1OC`: 2.75%; for `CCOC(=O)N1CCN(C(=O)C2CC(c3ccccc3OC)=NO2)CC1` (centres unmarked): 3.2%; for `CCn1c(C)cc(/C=C2/NC(=O)N(Cc3ccccc3F)C2=O)c1C`: -13%. With `COc1ccc(-c2nc3c(c(SCC(N)=O)n2)Cc2cc(C)ccc2O3)cc1`, the “% Inhibition @ 10 uM” value was -6.52%. The same measure for `COc1ccccc1NC(=O)CC1Nc2ccccc2NC1=O` (centres unmarked): 4.63%; for `Nc1nc2ccccc2n1Cc1ccccc1Cl`: -6.88%. The same measure for `Oc1ccc(CNCCc2c[nH]c3ccccc23)cc1`: 2.02%; for `N#Cc1nn(C(=O)c2ccccc2)c(N)c1C#N`: 2.57%. Turning to `CC1=C(C#N)C(c2ccc(Cl)cc2)C2=C(O)CC(C)(C)CC2=N1` (centres unmarked), the “% Inhibition @ 10 uM” value is recorded as -2.24%. `COc1ccccc1C1=NOC(COC(=O)c2ccc3ccccc3n2)C1` (centres unmarked): the “% Inhibition @ 10 uM” value worked out at 3.54%. Take `O=C(CNS(=O)(=O)c1ccccc1)NCc1cccnc1`: the “% Inhibition @ 10 uM” value is listed as 3.68%. `Cc1noc(C(=O)NCC(C)C)c1Cl`: the “% Inhibition @ 10 uM” value was -3.45%. The same measure for `Cc1ccc(C)c(N(CC(=O)NCc2ccco2)S(=O)(=O)c2ccccc2)c1`: -9.75%; for `COc1ccc(C2C(C#N)=C(N)Oc3cccc(O)c32)cc1` (centres unmarked): -3.26%; for `CC(C)(C)S(=O)(=O)c1ccc2nc3c(n2c1)CCCC3`: -1.76%. The same measure for `CC(=O)Nc1ccc(NC(=S)NC(=O)c2ccccc2)cc1`: -1.8%; for `Cc1ccc(C(=O)/C=C/c2cn(CC(O)CN3CCN(C)CC3)c3ccccc23)cc1` (centres unmarked): 3.24%. The same measure for `CCCCN(CC)C(=O)c1cc2ccc3cccnc3c2[nH]1`: 3.44%; for `CC(=O)c1ccc(C(=O)N(CCCN(C)C)c2nc3ccc(C)cc3s2)cc1`: -0.0255%; for `CCOC(=O)N1CCC(NC(=O)CCc2c(C)nc3ncnn3c2C)CC1`: -2.25%. For the molecule `Cc1ccc2c(c1)-c1onc(C(=O)N3CCC(c4ccccc4)C3)c1CO2` (centres unmarked), the “% Inhibition @ 10 uM” value was found to be 2.24%. For `Cc1nc2cccc(C(=O)NCCc3c(C)[nH]c4ccc(F)cc34)c2o1`, the “% Inhibition @ 10 uM” value is given as -4.49%.

Consider `Cc1cc(C)cc(NCc2ccccn2)c1`, for which the “% Inhibition @ 10 uM” value was determined as 1.84%.
